Source: the RNAGym collection of RNA variant scans (doi:10.1073/pnas.2313332121)
This sample is rich in variants without activity.

B1: TPR 5TU (parent)
chain: GGAUCUUCUCGAUCUAACAAAAAAGACAAAUCUGCCACAAAGCUUGAGAGCAUCUUCGGAUGCAGAGGCGGCAGCCUUCGGUGGCGCGAUAGCGCCAACGUUCUCAACUAUGACACGCAAAACGCGUGCUCCGUUGAAUGGAGUUUAUCAUG

Variants of: B1
Experiment: polymerase ribozyme fitness, log enrichment relative to wild type (log ratio); higher = more active; in vitro selection for triplet polymerase activity
Method in brief: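 Each subunit of a heterodimeric triplet polymerase ribozyme was represented by a PCR-built, transcribed mutant library that underwent triplicate single-round in vitro selection with frozen incubation at −7 °C. Extended constructs were recovered by gel excision, streptavidin-bead capture and RT-PCR, and Illumina sequencing of input and output libraries kept genotypes with ≥10 input reads and ≥1 read per output. Fitness is the logarithm of genotype enrichment relative to wild-type enrichment, from inverse-variance-weighted replicate averages, with a logarithm base of 2.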

Row | Variant | polymerase ribozyme fitness (log ratio)
1 | GGAUCUUCUCGAUCUAACAAAAAAGACAAAUGUGCCACAAAGCUUGAGAGCAUCUUGGGAUGCAGAGGCGGCAGCCUGCGGUGGCGUGAUAGCGCCAACGUUCUCGACUAUGACACGCAAAACGCGUGCUCCGUUGAAUGGAGUUUAUCAUG [C32G C57G U78G C87U A106G] | ≤ -4.2
2 | GGAUCUUCUCGAUCUAACAAAAAAGACAAAUGUGCCACAAAGCUUGAGAGCAUCUUCGGAUGGAGAGGCGGCAGCCUUCGGUGGGGCGAUAGGGCCAACGUUCUCAACUAUGACACGCAUAACGCGGGCUCCGUUGAAUGGAGUUCUUCAUG [C32G C63G C85G C93G A120U U127G U146C A147U] | ≤ -4.2
3 | GGAUCUUCUCGAUCUAACAAAAAAGACAAAUGUGCCACAAAGCUUGAGAGCAUCUUCGGAUGCAGAGGAGGCGGCCUUCGGUGGCGCGAUAGUGCCAUCUUUCUUAACUCUGACAUGCAAAACGCGUGCUCCGUUGAAUGGAGUUUAUCAUG [C32G C69A A73G C93U A98U G100U C105U A110C C116U] | ≤ -4.2
4 | GGAUCUUCUCGAUCUAACAAAAAAGACAAAUGUGCCACAAAGCUUGAGAGCAUCUUCGGAUGCAGAGGUGGCAGCCUUCGGUGGUGCGAUAGCGCCAACGUUCUCAACUAUGACACGCAAAACGCGUGCUCCGUUGAAUGGAGUUUAUGAUA [C32G C69U C85U C149G G152A] | ≤ -4.2
5 | GGAUCUUCUCGAUCUAACAAAAAAGACAAAUGUGCCACAAAGCUUGAGAGCAUCUUCGGAUGCAGAGGCGGCAGACUUCGGUGACGCGAUAGCGCCAACGUUCUCAACUAUGACACGCAAAACGCGCGCUCUGUUGAAUGGAGUUUAUCAUG [C32G C75A G84A U127C C132U] | ≤ -4.2
6 | GGAUCUUCUCGAUCUAACAAAAAAGACAAAUGUGCCACAAAGCUUGAGAGCAUCUUCGGAUGCAGAGGCGGCAGCUUUCGGUGGCGCCAUAGCGCAAACGUUUUCAACUAUGACACGCAAAACGCGGGAUCCGUUGAAAGGUGUUUAUCAUG [C32G C76U G88C C96A C103U U127G C129A U139A A142U] | ≤ -4.2
7 | GGAUCUUCUCGAUCUAACAAAAAAGACAAAUGUGCCACAAAGCUUGAGAGCAUCUUCGGAUGCAGAGGCGGCAGCCUUCGGUGGGGCGAUAGCGCCAACGUUCUCAACUAUGACACGCAAAACGCGUGCUCCGUUGAAUGGAGUUUAUCAUG [C32G C85G] | ≤ -4.2
8 | GGAUCUUCUCGAUCUAACAAAAAAGACAAAUGUGCCACAAAGCUUGAGAGCAUCUUCGGAUGCAGAGGCGGCAGCCUUCGGUGGGGCGAGAGCGCCAACGUUCUCAACUAUGACACGAAAAACGCGUGCUCCUUUGAAUCGAGUUUAUGAUG [C32G C85G U90G C118A G133U G140C C149G] | ≤ -4.2
9 | GGAUCUUCUCGAUCUAACAAAAAAGACAAAUGUGCCACAAAGCUUGAGAGCAUCUUCGGAUGCAGAGGCGGCAGCCUUCGGUGGCGUGAUAGCGCCAACGUUCUCAUCUAUGCCAAGCAAAACGCGUGCUCCGUUGAAUGGAGUUUAUCAUG [C32G C87U A107U A113C C116A] | ≤ -4.2
10 | GGAUCUUCUCGAUCUAACAAAAAAGACAAAUGUGCCACAAAGCUUGAGAGCAUCUUCGGAUGCAGAGGCGGCAGCCUUCGGUGGCGUGAUAGGGCCAACGUUCUCAACUAUGACACGCAAAACGCGUGCUCCGUUGAAUGGAGUUUAUCAUG [C32G C87U C93G] | ≤ -4.2
11 | GGAUCUUCUCGAUCUAACAAAAAAGACAAAUGUGCCACAAAGCUUGAGAGCAUCUUCGGAUGCAGAGGCGGCAGCCUUCGGUGGCGCGAUAGUGCCAAGGUUCUCAACUAUGACACCCAAAACGCGUGCUCCGUUGGAUGGAGGUUAUCAUG [C32G C93U C99G G117C A137G U144G] | ≤ -4.2
12 | GGAUCUUCUCGAUCUAACAAAAAAGACAAAUGUGCCACAAAGCUUGAGAACAUCUUCGGAUGCAGAGGCGGCAGCCUUCGGUGGCGCGAUAGCUCCAACGUUCUCAACUAUGACACGCAAAACGCGUGCUCCGAUGAAUGGAGUUUAUCAUG [C32G G50A G94U U134A] | ≤ -4.2
13 | GGAUCUUCUCGAUCUAACAAAAAAGACAAAUGUGCCACAAAGCUUGAGAGCAUCUUCUGUUGCAGAGGCGGCAGCCUUCGGUGGCGCGAUAUCGCCAACGUUCUCAACUAUGACACGCAAAACGCGUGCUCCGUUGCAUGGAGUUUAUCAUG [C32G G58U A60U G92U A137C] | ≤ -4.2
14 | GGAUCUUCUCGAUCUAACAAAAAAGACAAAUGUGCCACAAAGCUUGAGAGCAUCUUCGCAUGCAGAAGCGGCAGCCUUCGGUGGAGCGAUAGCGCCAACGUUCUCAACUAUUACACGCAAAACGCGUGCUCCGUUGAAUGGAGUUUAUCAUG [C32G G59C G67A C85A G112U] | ≤ -4.2
15 | GGAUCUUCUCGAUCUAACAAAAAAGACAAAUGUGCCACAAAGCUUGAGAGCAUCUUCGGAUGCAGAGACGGCAGCCUUCGAUGGCUCGAUAGCGCCAACGUUCUCAACUAUGACUCGCAAAACGCGUGCUCCGUUGAAUGGAGUUUAUCAUG [C32G G68A G81A G86U A115U] | ≤ -4.2
16 | GGAUCUUCUCGAUCUAACAAAAAAGACAAAUGUGCCACAAAGCUUGAGAGCAUCUUCGGAUGCAGAGGCGGCAGCCUUCGGUGUCGCAAUAGCGCCAACGUUCUCAACUAUGAAACGCAAAACGCGUGCUCCGUUGAAAGGAGUUUAUAAUG [C32G G84U G88A C114A U139A C149A] | ≤ -4.2
17 | GGAUCUUCUCGAUCUAACAAAAAAGACAAAUGUGCCACAAAGCUUGAGAGCAUCUUCGGAUGCAGAGGCGGCAGCCUUCGGUGGCUCGAUAGCGCCAACGUUCUCAACUAGGACUCGCAAAACGCGUGCUCCGUUGAAUGAAGUUUAUCAUG [C32G G86U U111G A115U G141A] | ≤ -4.2
18 | GGAUCUUCUCGAUCUAACAAAAAAGACAAAUGUGCCACAAAGCUUGAGAGCAUCUUCGGAUGCAGAGGCGGCAGCCUUCGGUGGCGCGAUAUCGCCAACGUUCUCAACUAUGACACGCAAAACGCGGGCUCCGUUGAAUGGAGUUUAUCAUU [C32G G92U U127G G152U] | -3.98
19 | GGAUCUUCUCGAUCUAACAAAAAAGACAAAUGUGCCACAAAGCUUGAGAGCAUCUUCGGAUGCAGAGGCGGCAGCCUUCGGUGGCGCGAUAGCCCCAACGUUCUCAACUAUGACACGCAAAACGCGUGCUCCGUUGAAUGGAGUUUAUCAUG [C32G G94C] | -4.18
